# Test results published in PubChem BioAssay AID504333 (National Center for Advancing Translational Sciences (NCATS), 2011).
# In all, about 360,000 compounds went through this assay and about 16,000 (4.4%) were called active. Inconclusive means that the source gave no clear call. Such entries were picked first, then a sample of the others. Calls follow the shape of the dose curve; as a rule, active = well fitted inhibition curve with a large enough effect; inconclusive = small, poorly fitted or top-dose-only effect; inactive = no such curve, though single readings can be large or run the other way. Potencies of inconclusive entries are doubtful fits and often do not repeat.
# Target: Bromodomain adjacent to zinc finger domain protein 2B (Homo sapiens) (UniProt Q9UIF8)
# Assay: qHTS Assay for Inhibitors of BAZ2B; also: nearly all actives have a fitted effect of over 60% in size
# Conditions: AlphaScreen BAZ2B-H3K14Ac peptide displacement; series mostly up to 114 µM
# In short: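 Complex of BAZ2B and biotin-H3K14Ac (50 nM apiece) forms over 30 min at RT, then faces library compounds up to 110 uM for another 30 min; AlphaScreen beads added, 20 min dark incubation, luminescence read.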
# Potency is read from the fitted curve at half-maximal effect; tags tell the direction and shape of the fitted curve.
# Sequence of UniProt Q9UIF8 (Q9UIF8 whole entry, looked up, the tested form may be a part): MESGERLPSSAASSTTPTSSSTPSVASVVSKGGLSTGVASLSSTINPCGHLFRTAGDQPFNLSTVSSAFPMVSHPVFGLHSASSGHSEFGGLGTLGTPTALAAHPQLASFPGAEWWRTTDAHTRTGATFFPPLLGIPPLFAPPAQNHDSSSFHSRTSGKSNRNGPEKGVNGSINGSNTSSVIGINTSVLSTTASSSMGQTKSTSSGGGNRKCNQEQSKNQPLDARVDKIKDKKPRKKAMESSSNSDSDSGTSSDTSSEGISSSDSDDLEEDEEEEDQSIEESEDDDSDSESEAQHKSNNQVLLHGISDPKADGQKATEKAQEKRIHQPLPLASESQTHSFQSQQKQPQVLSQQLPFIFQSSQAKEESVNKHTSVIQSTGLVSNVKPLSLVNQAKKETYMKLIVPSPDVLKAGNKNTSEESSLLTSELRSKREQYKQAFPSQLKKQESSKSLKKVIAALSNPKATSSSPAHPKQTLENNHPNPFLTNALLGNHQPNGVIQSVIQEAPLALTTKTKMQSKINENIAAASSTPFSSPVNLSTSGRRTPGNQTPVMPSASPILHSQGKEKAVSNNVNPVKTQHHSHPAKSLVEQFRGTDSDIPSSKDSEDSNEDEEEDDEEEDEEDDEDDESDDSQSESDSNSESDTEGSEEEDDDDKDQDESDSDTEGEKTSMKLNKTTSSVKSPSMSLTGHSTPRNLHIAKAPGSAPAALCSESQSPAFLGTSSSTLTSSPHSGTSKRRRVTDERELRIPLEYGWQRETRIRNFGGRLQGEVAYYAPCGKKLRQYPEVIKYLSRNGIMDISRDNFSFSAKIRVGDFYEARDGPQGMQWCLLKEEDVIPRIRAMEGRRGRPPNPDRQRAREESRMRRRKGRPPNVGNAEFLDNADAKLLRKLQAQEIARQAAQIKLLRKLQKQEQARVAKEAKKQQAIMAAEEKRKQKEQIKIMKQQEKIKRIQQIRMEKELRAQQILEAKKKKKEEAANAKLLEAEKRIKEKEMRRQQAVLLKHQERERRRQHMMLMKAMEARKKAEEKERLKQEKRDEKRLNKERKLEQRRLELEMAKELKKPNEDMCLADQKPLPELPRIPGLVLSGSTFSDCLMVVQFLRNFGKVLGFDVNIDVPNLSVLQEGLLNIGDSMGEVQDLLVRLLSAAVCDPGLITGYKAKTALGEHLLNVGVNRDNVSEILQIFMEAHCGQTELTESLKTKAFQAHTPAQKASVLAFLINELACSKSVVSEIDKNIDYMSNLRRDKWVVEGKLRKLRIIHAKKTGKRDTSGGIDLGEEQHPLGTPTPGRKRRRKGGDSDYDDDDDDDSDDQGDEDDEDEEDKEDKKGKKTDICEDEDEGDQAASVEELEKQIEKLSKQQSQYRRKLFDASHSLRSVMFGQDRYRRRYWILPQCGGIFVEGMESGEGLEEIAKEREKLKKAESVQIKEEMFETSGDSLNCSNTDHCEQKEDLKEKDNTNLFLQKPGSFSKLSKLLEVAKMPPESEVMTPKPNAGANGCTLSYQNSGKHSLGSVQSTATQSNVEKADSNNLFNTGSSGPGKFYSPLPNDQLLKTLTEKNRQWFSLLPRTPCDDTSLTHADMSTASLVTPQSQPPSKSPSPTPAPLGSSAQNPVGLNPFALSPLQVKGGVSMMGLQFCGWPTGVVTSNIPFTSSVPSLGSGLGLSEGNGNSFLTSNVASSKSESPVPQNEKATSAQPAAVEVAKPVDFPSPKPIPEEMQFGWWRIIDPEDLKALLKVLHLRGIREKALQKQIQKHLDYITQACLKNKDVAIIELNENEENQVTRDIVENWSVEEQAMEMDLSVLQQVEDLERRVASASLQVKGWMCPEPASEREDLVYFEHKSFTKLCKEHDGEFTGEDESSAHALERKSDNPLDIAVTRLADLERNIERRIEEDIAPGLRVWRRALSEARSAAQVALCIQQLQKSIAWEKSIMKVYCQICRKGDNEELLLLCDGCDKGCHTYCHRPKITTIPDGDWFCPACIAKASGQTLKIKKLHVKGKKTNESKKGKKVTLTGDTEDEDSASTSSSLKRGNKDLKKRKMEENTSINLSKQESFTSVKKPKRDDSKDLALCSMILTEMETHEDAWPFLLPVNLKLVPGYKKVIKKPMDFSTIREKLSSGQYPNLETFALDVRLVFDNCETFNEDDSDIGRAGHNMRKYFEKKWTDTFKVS
row,SMILES,Potency
1,CC(=O)OCCNc1cc(SCc2ccco2)c2nonc2c1[N+](=O)[O-],"inconclusive: 44.7 µM [inhibitor, partial curve]"
2,COc1ccc(C(C)(C)C)cc1NC(=O)c1[nH]c(C)c(C(C)=O)c1C,"inconclusive: 39.8 µM [inhibitor, partial curve]"
3,CN(C)/C=N/c1cc(=O)n(C)c(=O)n1Cc1ccccc1,inactive
4,CCOc1ccc(C(=O)Nc2ncn[nH]2)cc1,active: 50.1 µM
5,O=C(COC(=O)Cc1c(Cl)cccc1Cl)NCC1CCCO1 (stereo not given),inactive
6,S=c1[nH]nc(CSc2nc3ccccc3s2)n1C1CCCCC1,"inconclusive: 70.8 µM [inhibitor, partial curve]"
7,CCN(CC)S(=O)(=O)c1ccc(C(=O)NC2=C(C(=O)OC)SCC2)cc1,"inconclusive: 39.8 µM [inhibitor, full curve]"
8,COc1ccc(/C=C(\NC(=O)c2ccco2)C(=O)N2CCCCC2)cc1,inactive
9,Cc1ccc(C(=O)O)cc1NC(=S)NC(=O)c1ccc(-c2ccccc2)cc1,inactive
10,O=[N+]([O-])c1nn(-c2ccc3c(c2)OCCO3)n(O)c1=Nc1ccc(Cl)cc1,"inconclusive: 39.8 µM [inhibitor, partial curve]"
11,CC(C)(C)OC(=O)CNC(=O)c1nc[nH]c1C(=O)N1CCNCC1,active: 79.4 µM
12,COC(=O)c1cc(OC)c(OC)cc1N1C(=O)CCCC1=O,inactive
13,O=C(CN1CCCc2ccccc21)NCc1ccc2c(c1)OCO2,"inconclusive: 89.1 µM [inhibitor, single point]"
14,C/C(=N/n1cnnc1)c1cccnc1,"inconclusive: 89.1 µM [inhibitor, single point]"
15,Oc1c(C(Nc2nc3ccccc3s2)c2ccco2)ccc2cccnc12 (stereo not given),active: 50.1 µM
16,CC(Sc1ccccc1)C(=O)NNC(=O)c1csc(N2CCOCC2)n1 (stereo not given),inactive
17,Cc1ccc(S(=O)(=O)NCc2ccccc2)cc1C(=O)N(C)Cc1ccccc1F,inactive
18,O=C1c2cccc3cccc(c23)C(=O)N1c1ccc2ncccc2c1,"inconclusive: 89.1 µM [inhibitor, single point]"
19,Cc1noc(/C=C/N(C)C)c1S(=O)(=O)N1CCCC(C(=O)NCCC2=CCCCC2)C1 (stereo not given),"inconclusive: 44.7 µM [inhibitor, partial curve]"
20,Cc1cccc(NC(=O)CN2CCSc3ccccc32)c1,"inconclusive: 39.8 µM [inhibitor, partial curve]"
21,CO/N=C/C=C1/N(C)c2ccccc2C1(C)C,"inconclusive: 50.1 µM [inhibitor, partial curve]"
22,O=c1[nH]nc(Sc2ncnc3sccc23)n1CCc1ccccc1,inactive
23,Cc1ccccc1NC(=O)Cn1c(=O)n(CCC(=O)NCc2ccc3c(c2)OCO3)c(=O)c2sccc21,"inconclusive: 89.1 µM [inhibitor, single point]"
24,CC(=O)N1CCc2cc(CNS(=O)(=O)c3ccc(C(C)(C)C)cc3)ccc21,"inconclusive: 79.4 µM [inhibitor, single point]"
25,CC(C)CCNC(=O)C1C2C=CC3(CN(Cc4ccccc4Cl)C(=O)C13)O2 (stereo not given),inactive

row,SMILES,Potency
1,O=C1CN(C(=O)c2ccc(S(=O)(=O)N3CCCCC3)cc2)C(c2ccc(F)cc2)c2cc(Br)ccc2N1 (stereo not given),inactive
2,N#Cc1c(/N=C/c2cccnc2)sc2c1CCCC2,"inconclusive: 39.8 µM [inhibitor, partial curve]"
3,Fc1ccc(-c2csc(Nc3ccccn3)n2)c(F)c1,inactive
4,Cc1ccc(OCC(=O)Nc2ccc3nc(SCC(=O)N4CCOCC4)sc3c2)cc1C,inactive
5,Cc1ccc2cccc(NC(=O)c3ccc(C#N)cc3F)c2n1,inactive
6,c1ccc(-c2ccccc2OCCOCCN2CCCCC2)cc1,inactive
7,O=C(CN1CCN(c2cccc(Cl)c2)CC1)Nc1ccc(S(=O)(=O)N2CCOCC2)cc1,"inconclusive: 79.4 µM [inhibitor, single point]"
8,COc1ccc(NC(=O)CCl)cn1,active: 79.4 µM
9,O=C1CC2(CCN(C(=O)c3ccc(F)cc3)CC2)Oc2ccccc21,"inconclusive: 89.1 µM [inhibitor, single point]"
10,CNC(=S)N(CCc1c(C)[nH]c2ccccc12)Cc1ccco1,"inconclusive: 56.2 µM [inhibitor, partial curve]"
11,CCC12CN3CC(C)(CN(C1)C3c1c[nH]c3ccc(OC)cc13)C2=O (stereo not given),"inconclusive: 79.4 µM [inhibitor, single point]"
12,COc1cccc(NC(=O)Nc2cccc(C(=O)O)c2)c1,inactive
13,O=C(CN1c2ccccc2Sc2ccccc21)NNC(=S)Nc1ccc(Cl)cc1,"inconclusive: 35.5 µM [inhibitor, full curve]"
14,Cc1ccc2nc(N3CCC(C(=O)NCc4ccc(F)cc4)CC3)[nH]c2c1,inactive
15,COc1ccc(NC(=O)COC(=O)CN2C(=O)C3CCCCC3C2=O)cc1OC (stereo not given),inactive
16,Oc1ccc(-c2csc(Nc3ccccn3)n2)cc1,"inconclusive: 50.1 µM [inhibitor, partial curve]"
17,CCCc1nc2c(=O)n(C)c(=O)[nH]c2n1CCC,inactive
18,CCn1ccc2cc(S(=O)(=O)N3CCCN(C(=O)NCC(=O)OC)CC3)ccc21,inactive
19,Cc1onc(-c2ccccc2)c1C(=O)NC(=S)Nc1sc2c(c1C#N)CCC(C)C2 (stereo not given),"inconclusive: 39.8 µM [inhibitor, partial curve]"
20,Cc1ccc(NS(=O)(=O)c2cc(C(=O)NCc3ccncc3)ccc2C)cc1,inactive
21,CC1(O)N(CCC(=O)Nc2cccc(F)c2)C(=O)OC12CCCCC2 (stereo not given),inactive
22,CCOc1ccc2nc(SCC(=O)Nc3ccc4c(c3)OCCO4)[nH]c2c1,"inconclusive: 89.1 µM [inhibitor, single point]"
23,Cc1ccc(Cl)cc1N1CCN(C(=O)c2cnn(-c3ccc(Cl)cc3)c2C2CCNCC2)CC1,"inconclusive: 70.8 µM [inhibitor, partial curve]"
24,CN(/N=C/c1ccccc1O)C(=S)c1ccccc1,"inconclusive: 89.1 µM [inhibitor, single point]"
25,COc1cc(S(=O)(=O)NCc2ccccc2Cl)ccc1-n1cnnn1,"inconclusive: 89.1 µM [inhibitor, single point]"
